PubChem BioAssay AID887 (National Center for Advancing Translational Sciences (NCATS), 2007)
Where “and” joins values, the source holds several entries; their conditions need not be identical. Equal entries are not always repeated. The campaign covered roughly 74,000 compounds. About 1,100 (1.5%) were called active. Inconclusive means that the source gave no clear call. Such entries were picked first, then a sample of the others. Calls come from the whole dose curve; as a rule, active = well fitted inhibition curve with a large enough effect; inconclusive = small, poorly fitted or top-dose-only effect; inactive = no such curve, though single readings can be large or run the other way. No potency is given beside an inconclusive call; the fits are too rough.

Biological target: Polyunsaturated fatty acid lipoxygenase ALOX15 (Homo sapiens) (UniProt P16050)
Assay: qHTS Assay for Inhibitors of 15-hLO (15-human lipoxygenase); note: nearly all actives have a fitted effect of over 55% in size
Settings: purified 15hLO-1, xylenol orange hydroperoxide absorbance; activity change, negative = inhibition: at 57.1 µM (top of the series) unless noted
Procedure, shortened: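 Inhibition is scored from a chromogenic endpoint. After 15 min enzyme-compound contact, arachidonic acid (50 uM final) reacts 6 min with 40 nM 15hLO-1 at room temperature, then Fe-XO reagent is added for 30 min and absorbance ratio recorded.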
% is set by controls: 0 for no effect and ±100 for the full control effect; potency is the fitted concentration of half-maximal effect; tags give direction and shape of the fitted curve.

UniProt P16050, sequence (P16050 whole entry, looked up): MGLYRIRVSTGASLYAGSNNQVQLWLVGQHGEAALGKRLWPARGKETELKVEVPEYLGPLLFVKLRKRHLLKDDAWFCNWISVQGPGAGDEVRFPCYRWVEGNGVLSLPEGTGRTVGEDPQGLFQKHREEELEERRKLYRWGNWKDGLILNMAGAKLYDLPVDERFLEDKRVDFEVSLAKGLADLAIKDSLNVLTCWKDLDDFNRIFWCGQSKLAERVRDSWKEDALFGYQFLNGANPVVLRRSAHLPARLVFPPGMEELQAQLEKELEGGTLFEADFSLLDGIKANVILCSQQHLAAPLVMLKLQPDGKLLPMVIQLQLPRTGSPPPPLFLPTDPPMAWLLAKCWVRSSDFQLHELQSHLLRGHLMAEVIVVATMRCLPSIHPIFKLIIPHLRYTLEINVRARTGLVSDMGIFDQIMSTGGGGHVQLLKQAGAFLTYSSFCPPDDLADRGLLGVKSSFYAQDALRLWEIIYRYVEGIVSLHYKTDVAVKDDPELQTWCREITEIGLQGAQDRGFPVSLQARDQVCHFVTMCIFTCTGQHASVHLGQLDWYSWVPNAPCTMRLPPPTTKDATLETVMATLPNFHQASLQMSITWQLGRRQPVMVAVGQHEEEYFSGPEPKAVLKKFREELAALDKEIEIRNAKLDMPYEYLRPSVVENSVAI

Row | Compound | Potency | activity change, negative = inhibition
1 | Cc1cnc(CNc2ncncc2-c2ccc(N(C)C)cc2)cn1 | inconclusive [inhibitor, single point] | –
2 | COc1ccc(C2c3c(oc4ccccc4c3=O)C(=O)N2c2ccc(C)cn2)cc1OC (configuration not stated) | inactive | –
3 | CN(C)c1nc(N)nc(CSc2n[nH]c(-c3ccccc3)n2)n1 | inactive | –
4 | O=C(OCn1nnc2ccccc2c1=O)c1cccs1 | inconclusive [inhibitor, single point] | –
5 | COc1cccc2[nH]c3c(N4CCCC(C)C4)ncnc3c12 (configuration not stated) | inconclusive [inhibitor, partial curve] | –
6 | O=C(Oc1ccc2c(c1)OCO2)c1cccs1 | inconclusive [inhibitor, full curve, poor fit] | –
7 | CC1CCN(CC[S-])CC1.O.O.[Cl][Pt] | inconclusive [inhibitor, single point] | –
8 | CCN1C(=O)c2cccc3c(S(=O)(=O)Nc4ncccc4C)ccc1c23 | inconclusive [inhibitor, full curve, poor fit] | –
9 | CS(=O)(=O)N(CC(=O)O)Cc1ccccc1 | – | inactive: -0.449% [at 11.4 µM]
10 | CCOc1ccc2nc(NC(=O)C(NS(=O)(=O)c3cccs3)C(C)C)sc2c1 (configuration not stated) | inactive | –
11 | CC(C)c1ccc(NC(=O)C(c2ccccc2)N2CCN(C(=O)c3ccco3)CC2)cc1 (configuration not stated) | inconclusive [inhibitor, single point] | –
12 | CCOC(=O)N1CCN(C(=O)CN(c2cccc(C(F)(F)F)c2)S(C)(=O)=O)CC1 | inconclusive [inhibitor, single point] | –
13 | CCn1c(N)c(C(=O)Nc2ccccc2C(=O)OC)sc1=S | inconclusive [inhibitor, single point] | –
14 | CC(=O)/C=C(/C)NC(Cc1c[nH]c2ccccc12)C(=O)O (configuration not stated) | inconclusive [inhibitor, single point] | –
15 | COc1ccc(C(=O)Nn2c(C)ccc2C)cc1OC | inconclusive [inhibitor, single point] | –
16 | O=C(Nc1cccc(C(F)(F)F)c1)C1CCCN(c2ncccn2)C1 (configuration not stated) | inconclusive [inhibitor, partial curve] | –
17 | [O-]/[N+](=C/c1ccc(F)cc1)c1ccccc1 | inconclusive [inhibitor, single point] | –
18 | O=C(Nc1ccccc1)N1CC2(CCN(S(=O)(=O)c3ccccc3)CC2)C1 | inconclusive [inhibitor, full curve] | –
19 | Cc1ccc2c(c1)c1cccc3c1n2CCN3CCC(N)=O | active: 12.6 µM | –
20 | CC(C)[C@@H](OCc1ccccc1)[C@H](C)/C=N\O[C@@H](C)c1cn([C@@H]2COC[C@@H]2O)nn1 | – | inactive: 11.2% [at 11.4 µM]
21 | COc1ccc(-n2c(Cc3cccn3C)nnc2SCC(=O)Nc2ccc(C)cc2)cc1 | inconclusive [inhibitor, partial curve] | –
22 | O=C(c1cccs1)N1CCN(C(=O)c2ccco2)c2ccccc2C1 | inactive | –
23 | CC(=O)c1ccc(OC2C=CC(c3ccc(Cl)cc3)OC2CO)cc1 (configuration not stated) | – | inactive: -2.62% [at 11.4 µM]
24 | Cc1cc(C)c2c(N)c(C(=O)NCc3ccco3)sc2n1 | inconclusive [inhibitor, partial curve] | –

Row | Compound | Potency | activity change, negative = inhibition
25 | CC(=O)Nc1cc2nn(-c3ccccc3)nc2cc1Cl | inconclusive [inhibitor, single point] | –
26 | CC1(C)Cc2nc(N3CCOCC3)c(C#N)cc2CO1 | inactive | –
27 | O=c1nc2s/c(=C\c3ccco3)c(=O)n2nc1Cc1ccc(F)cc1 | inconclusive [inhibitor, partial curve] | –
28 | CC1=C(/C=C/C(C)=C/C=C/C(C)=C/CO)C(C)(C)CCC1 | inconclusive [inhibitor, partial curve] | –
29 | COc1ccc(-c2ccc(NCCC3=CCCCC3)nn2)cc1OC | inconclusive [inhibitor, single point] | –
30 | COC(=O)c1ccccc1NC(=O)c1noc2c1CCC2 | inconclusive [inhibitor, single point] | –
31 | N#C[C@H](c1ccccc1)N1CCCN([C@@H](C#N)c2ccccc2)C1c1ccccc1O (some centres not stated) | – | inactive: -12.8% [at 11.4 µM]
32 | O=C1CCCC2=C1C(c1ccco1)Nc1ccc3ccccc3c12 (configuration not stated) | inconclusive [inhibitor, single point] | –
33 | Cc1cccc(N2CCN(C(=O)Cn3sc4nc(C)cc(C)c4c3=O)CC2C)c1 (configuration not stated) | inconclusive [inhibitor, full curve] | –
34 | CSc1ccccc1N=Cc1nc(-c2ccccc2)oc1O | inconclusive [inhibitor, partial curve] | –
35 | C/C=C(/C(=C/C)c1ccc(O)cc1)c1ccc(O)cc1 | active: 25.1 µM | –
36 | N#CC1=C(N)Oc2c(oc(CO)cc2=O)C1c1ccsc1 (configuration not stated) | inconclusive [inhibitor, single point] | –
37 | Cc1noc(C)c1COC(=O)c1ccccc1Oc1ccccc1 | inactive | –
38 | OC(COCC1COc2ccccc2O1)CN1CCN(c2ccccn2)CC1 (configuration not stated) | inconclusive [inhibitor, partial curve, poor fit] | –
39 | COc1ccc2nc(NC(=O)Cc3ccc(OC)c(S(=O)(=O)N4CCOCC4)c3)sc2c1 | inactive | –
40 | Cn1c2ccccc2c2ncn(Cc3ccco3)c(=O)c21 | inactive | –
41 | CN1CCN(c2nc3nonc3nc2N2CCN(C)CC2)CC1 | inconclusive [inhibitor, single point] | –
42 | N#CC1=C(N)C(C#N)(C#N)C(c2cccnc2)C2CCCC=C12 (configuration not stated) | active: 25.1 µM | –
43 | CO[C@H]1COC(=O)C/C=C\[C@H](C)[C@@H](NS(=O)(=O)c2ccc(C)cc2)COC(=O)C/C=C\[C@@H]1C | – | inactive: -0.068% [at 11.4 µM] and inactive: 3.07% [at 11.4 µM]
44 | COc1cccc(-n2nnc3c(=O)n(Cc4ccc(Cl)cc4)cnc32)c1 | inactive | –
45 | COc1ccccc1-c1nnc2n1N=C(C)CS2 | inconclusive [inhibitor, single point] | –
46 | C=CCSC1=N/C(=C\c2ccc(C)o2)C(=O)S1 | inconclusive [inhibitor, single point] | –
47 | COc1cc(C2C(C(=O)c3ccc(C)o3)=C(O)C(=O)N2CCc2ccccc2)ccc1O (configuration not stated) | inconclusive [inhibitor, single point] | –
48 | O=C1Nc2ccccc2C12Nc1ccccc1-c1nc3ccccc3n12 (configuration not stated) | inconclusive [inhibitor, single point] | –

Row | Compound | Potency | activity change, negative = inhibition
49 | Oc1ccc(Cc2nccc3cc(O)c(O)cc23)cc1O | inconclusive [inhibitor, partial curve] | –
50 | CC(C)CC(OC(=O)c1cccs1)C(=O)NCC1CCCO1 (configuration not stated) | inactive | –
51 | CC(=O)N1CCC2(CC1)CN(C(c1ccccc1)c1ccccc1)C2 | inactive | –
52 | O=C(CN1C(=O)CSc2ccccc21)Nc1ccc2c(c1)OCCO2 | inconclusive [inhibitor, single point] | –
53 | CCOC(=O)c1c(-c2ccsc2)csc1N | inconclusive [inhibitor, partial curve] | –
54 | Cc1ccc(S(=O)(=O)N(CC(O)CN2CCCC2)c2ccccc2)cc1 (configuration not stated) | inconclusive [inhibitor, full curve] | –
55 | O=C(Cn1c(=O)sc2ccccc21)Nc1nc2c(s1)CCCC2 | inconclusive [inhibitor, single point] | –
56 | O=c1n(CCCN2CCN(c3cccc(Cl)c3)CC2)nc2ccccn12 | inactive | –
57 | CC1(C)CC(=O)C2=C(C1)NC(SCC(=O)Nc1ccccc1)=C(C#N)C21CCCCC1 | inconclusive [inhibitor, partial curve] | –
58 | Cc1sc2nc(SCC(=O)N(CCO)CCO)n(C3CCCCC3)c(=O)c2c1C | inactive | –
59 | c1csc(CNc2nc(-c3ccc4c(c3)OCO4)nc3ccccc23)c1 | inconclusive [inhibitor, single point] | –
60 | Cc1cccc(Cn2c(=O)n(Cc3ccco3)c(=O)c3ccccc32)c1 | inactive | –
61 | Cc1ccc2cc(C)c3nnc(SCC(=O)NCc4ccco4)n3c2c1 | inactive | –
62 | CN(C)c1nc(Nc2ccc(Cl)cc2)nc(OCC#N)n1 | inconclusive [inhibitor, partial curve] | –
63 | COc1ccc(C(=O)CSc2nnc(COc3ccccc3)n2Cc2ccco2)cc1 | inconclusive [inhibitor, single point] | –
64 | COc1ccccc1C(=O)N1CCN(C(=O)c2ccncc2)CC1 | inactive | –
65 | CCOC(=O)N1CCC(NC(=O)c2cccc3c2C(=O)N(c2ccc(OC)cc2)C3)CC1 | inconclusive [inhibitor, partial curve] | –
66 | CN(Cc1ccccc1)c1nc2c(c(=O)[nH]c(=O)n2C)n1CCOc1ccccc1 | inconclusive [inhibitor, partial curve] | –
67 | CC(C)OC(=O)CC(=O)c1sc2nc3c(cc2c1N)CN(C)CC3 | inconclusive [inhibitor, partial curve] | –
68 | C=C(C)C1COc2cc3oc(=O)ccc3cc2O1 (configuration not stated) | inactive | –
69 | CN1CCc2cc(O)c(O)cc2[C@H](c2ccccc2)C1 | inactive | –
70 | O=C1O/C(=C\Br)CC[C@@H]1c1cccc2ccccc12 | inconclusive [inhibitor, partial curve] | –
71 | Oc1ccc(-c2nc(-c3ccc(F)cc3)c(-c3ccncc3)[nH]2)cc1 | inconclusive [inhibitor, single point] | –
72 | Cc1onc(-c2ccccc2)c1C(=O)Nc1nnc(COc2ccc(Cl)cc2)s1 | active: 7.94 µM | –
